Results on 46 compounds are retold here after the supplement of paper PMC9938546.

Where a name gives a salt, the structure may show the parent alone. The list shows a part of the results. Repeats are few or missing, and single values can be far off.
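Note: viability estimated indirectly by image-based GFP quantification with live-cell imaging of the constitutively GFP-expressing human colorectal cancer line, no immune cells added.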

The test system of this test is HCT116-GFP. Briefly: HCT116-GFP viability (GFP intensity) relative to untreated control, monoculture; higher = less cancer cell killing. Particulars: culture: HCT116-GFP monoculture; 10 µM; 72 h.
For the compound `CCN(CC)CCCC(C)Nc1c2ccc(Cl)cc2nc2ccc(OC)cc12` (stereo unspecified) [Quinacrine dihydrochloride hydrate], the HCT116-GFP viability was 60%.

Turning to `CCCCCCCCCCCCCCCC[N+](C)(C)CCN(Cc1ccc(OC)cc1)c1ncccn1` [Thonzonium bromide], the HCT116-GFP viability was 0.157%.

As for `C#C[C@]1(O)CC[C@H]2[C@@H]3CCc4cc(OC)ccc4[C@H]3CC[C@@]21C` [Ethynylestradiol 3-methyl ether], the HCT116-GFP viability came out at 93.6%.

Consider `CC(C)NCC(O)c1ccc(NS(C)(=O)=O)cc1` (stereo unspecified) [Sotalol hydrochloride], for which the HCT116-GFP viability stood at 89%.

For `CN(CCOc1ccc(NS(C)(=O)=O)cc1)CCc1ccc(NS(C)(=O)=O)cc1` [Dofetilide], the HCT116-GFP viability was 110%.

For the compound `CC(=O)N1CCN(c2ccc(OCC3COC(Cn4ccnc4)(c4ccc(Cl)cc4Cl)O3)cc2)CC1` (stereo unspecified) [Ketoconazole], the HCT116-GFP viability was found to be 70.3%.

As for `CCOC(=O)Nc1ccc2c(c1)N(C(=O)CCN1CCOCC1)c1ccccc1S2` [Moricizine hydrochloride], the HCT116-GFP viability was determined as 96.8%.

With `CC(C)C[C@H](NC(=O)[C@@H](O)[C@H](N)Cc1ccccc1)C(=O)O` [Ubenimex], the HCT116-GFP viability was 95%.

Take `CNC(=C[N+](=O)[O-])NCCSCc1ccc(CN(C)C)o1` [Ranitidine hydrochloride]: the HCT116-GFP viability was 107%.

As to `COC(=O)[C@H]1[C@H]2C[C@@H]3c4[nH]c5cc(OC)ccc5c4CCN3C[C@H]2C[C@@H](OC(=O)c2cc(OC)c(OC)c(OC)c2)[C@@H]1OC` [Reserpine], the HCT116-GFP viability turned out to be 79.2%.

Turning to `CC(=O)O[C@]1(C(C)=O)CC[C@H]2[C@@H]3C=C(C)C4=CC(=O)CC[C@@H]4[C@H]3CC[C@@]21C` [Nomegestrol acetate], the HCT116-GFP viability amounted to 92.3%.

Take `O=C1C(CC[S+]([O-])c2ccccc2)C(=O)N(c2ccccc2)N1c1ccccc1` (stereo unspecified) [Sulfinpyrazone]: the HCT116-GFP viability turned out to be 105%.

In the case of `NS(=O)(=O)c1cc2c(cc1Cl)N=C(CSCc1ccccc1)NS2(=O)=O` [Benzthiazide], the HCT116-GFP viability amounted to 99.8%.

In the case of `CC(=O)Oc1cc(C(F)(F)F)ccc1C(=O)O` [Triflusal], the HCT116-GFP viability is 90.4%.

As to `CC(C)Cc1ccc([C@H](C)C(=O)O)cc1` [S-(+)-ibuprofen], the HCT116-GFP viability worked out at 101%.

On to `CS(=O)(=O)c1ccc([C@@H](O)[C@@H](CO)NC(=O)C(Cl)Cl)cc1` [Thiamphenicol], for which the HCT116-GFP viability turned out to be 78.2%.

Turning to `O=c1[nH]cc(F)c(=O)[nH]1` [5-fluorouracil], the HCT116-GFP viability came out at 22.1%.

Take `C[C@]12C=CC(=O)C=C1CC[C@@H]1[C@@H]2[C@@H](O)C[C@@]2(C)[C@H]1CC[C@]2(O)C(=O)CO` [Prednisolone]: the HCT116-GFP viability is 107%.

`CN1CCN(CCCN2c3ccccc3Sc3ccc(S(=O)(=O)N(C)C)cc32)CC1` [Thioproperazine dimesylate]: the HCT116-GFP viability worked out at 86.8%.

For `O=C(O)Cc1ccccc1Nc1c(Cl)cccc1Cl` [Diclofenac sodium], the HCT116-GFP viability turned out to be 92%.

In the case of `C[C@@H](c1ncncc1F)[C@](O)(Cn1cncn1)c1ccc(F)cc1F` [Voriconazole], the HCT116-GFP viability amounted to 89.8%.

Take `COC(=O)C1=C(C)NC(C)=C(C(=O)OC)C1c1ccccc1[N+](=O)[O-]` [Nifedipine]: the HCT116-GFP viability was found to be 82.8%.

Regarding `Nc1ccc(O)c(C(=O)O)c1` [Mesalamine], the HCT116-GFP viability was determined as 92.4%.

On to `Clc1ccccc1CN1CCc2sccc2C1` [Ticlopidine hydrochloride], for which the HCT116-GFP viability stood at 87.4%.

As to `CCN(CC)CCOC(=O)C1(c2ccc([N+](=O)[O-])cc2)CCCC1` [Nitrocaramiphen hydrochloride], the HCT116-GFP viability is 105%.

As for `CO[C@@]1(NC(=O)C2SC(=C(C(N)=O)C(=O)O)S2)C(=O)N2C(C(=O)O)=C(CSc3nnnn3C)CS[C@@H]21` (stereo partly specified) [Cefotetan], the HCT116-GFP viability stood at 92.4%.

Turning to `CN(C)CCCN1c2ccccc2CCc2ccc(Cl)cc21` [Clomipramine hydrochloride], the HCT116-GFP viability was determined as 60.1%.

`Cc1cc(C(C)(C)CC(C)(C)C)ccc1OCCOCC[N+](C)(C)Cc1ccccc1` [Methyl benzethonium chloride]: the HCT116-GFP viability turned out to be 1.25%.

`Cc1cc(NC(=O)C2=C(O)c3ccccc3S(=O)(=O)N2C)no1` [Isoxicam]: the HCT116-GFP viability is 95.4%.

As for `C#C[C@]1(OC(C)=O)CC[C@H]2[C@@H]3CCC4=C[C@@H](OC(C)=O)CC[C@@H]4[C@H]3CC[C@@]21C` [Ethynodiol diacetate], the HCT116-GFP viability came to 72.3%.

For `Nc1ccc(S(=O)(=O)Nc2ncccn2)cc1` [Sulfadiazine], the HCT116-GFP viability worked out at 95.7%.

Take `CO[C@@]1(NC(=O)C(C(=O)O)c2ccc(O)cc2)C(=O)N2C(C(=O)O)=C(CSc3nnnn3C)CO[C@@H]21` (stereo partly specified) [Moxalactam disodium salt]: the HCT116-GFP viability is 113%.

As for `C#C[C@]1(O)CC[C@H]2[C@@H]3CCC4=CC(=O)CC[C@@H]4[C@H]3CC[C@@]21C` [Norethindrone], the HCT116-GFP viability was 104%.

For `CN(C)CCc1c[nH]c2ccc(C[C@H]3COC(=O)N3)cc12` [Zolmitriptan], the HCT116-GFP viability stood at 98.9%.

`CN(C)CCC=C1c2ccccc2C=Cc2ccccc21` [Cyclobenzaprine hydrochloride]: the HCT116-GFP viability is 78.6%.

As for `NS(=O)(=O)c1cc2c(cc1Cl)NCNS2(=O)=O` [Hydrochlorothiazide], the HCT116-GFP viability is 102%.

As to `C[N+]1(C)CCC(=C(c2ccccc2)c2ccccc2)CC1` [Diphemanil methylsulfate], the HCT116-GFP viability was 114%.

Take `CNNCc1ccc(C(=O)NC(C)C)cc1` [Procarbazine hydrochloride]: the HCT116-GFP viability came out at 86.3%.

For the compound `O=c1[nH]c(=O)n([C@H]2C[C@H](O)[C@@H](CO)O2)cc1F` [Floxuridine], the HCT116-GFP viability is 51.3%.

For the compound `COc1cc(C)c(/C=C/C(C)=C/C=C/C(C)=C/C(=O)O)c(C)c1C` [Acitretin], the HCT116-GFP viability came to 105%.

For the compound `CC(C)OC(=O)CCC/C=C\C[C@@H]1[C@@H](CC[C@@H](O)CCc2ccccc2)[C@H](O)C[C@@H]1O` [Latanoprost], the HCT116-GFP viability stood at 99.4%.

Regarding `CC(=O)Oc1cc(C(C)C)c(OCCN(C)C)cc1C` [Moxisylyte hydrochoride], the HCT116-GFP viability was 95.9%.

For the compound `CC(c1cc2ccccc2s1)N(O)C(N)=O` (stereo unspecified) [Zileuton], the HCT116-GFP viability is 98.2%.

`C#C[C@]1(O)CC[C@H]2[C@@H]3[C@H](C)CC4=C(CCC(=O)C4)[C@H]3CC[C@@]21C` [Tibolone]: the HCT116-GFP viability was found to be 110%.

Regarding `COc1cc(C(=O)N2CCOCC2)cc(OC)c1OC` [Trimetozine], the HCT116-GFP viability came to 105%.

Regarding `CC(=O)OCC(=O)[C@@]1(O)CC[C@H]2[C@@H]3CCC4=CC(=O)C=C[C@]4(C)[C@@]3(F)[C@@H](O)C[C@@]21C` [Isoflupredone acetate], the HCT116-GFP viability worked out at 110%.
